# Measurements from PubChem BioAssay (Tox21).
# The inconclusive results got no clear call from the source; some entries with a clear call stand among them for comparison. Entries that show only a call come without a potency. For part of these data: Where the call is inconclusive, the potency comes from a doubtful curve fit. Calls of active or inactive are those of the source. Unless noted, calls come from the whole dose curve; as a rule, active = well fitted curve in the direction sought with a large enough effect in the repeat runs; inconclusive = weak or mixed curves; inactive = no such curve, though single readings can be large; an effect the other way counts as inactive or inconclusive.
# Assays:
# [1] = target: Peroxisome proliferator-activated receptor delta (Homo sapiens) (UniProt Q03181); experiment: qHTS assay to identify small molecule antagonists of the peroxisome proliferator-activated receptor delta (PPARd) signaling pathway (AID 743215; active = well fitted inhibition curve with a large enough effect in the signal ratio in the repeat runs, not every such curve was filed as active; inconclusive = weak or mixed curves, or effect the other way; inactive = no such curve, though single readings can be large or run the other way; the % refers to the signal ratio;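 note: cells stimulated with agonist L165041 at 300 nM final during compound exposure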; note: potency is the fitted concentration of half-maximal effect); conditions: HEK293H PPARd-UAS-bla, beta-lactamase FRET ratio, antagonist, 17 h; ratio activity, negative = inhibition: at 62 µM (top of the series) unless noted
# Chain of UniProt Q03181 (Q03181 whole entry, looked up): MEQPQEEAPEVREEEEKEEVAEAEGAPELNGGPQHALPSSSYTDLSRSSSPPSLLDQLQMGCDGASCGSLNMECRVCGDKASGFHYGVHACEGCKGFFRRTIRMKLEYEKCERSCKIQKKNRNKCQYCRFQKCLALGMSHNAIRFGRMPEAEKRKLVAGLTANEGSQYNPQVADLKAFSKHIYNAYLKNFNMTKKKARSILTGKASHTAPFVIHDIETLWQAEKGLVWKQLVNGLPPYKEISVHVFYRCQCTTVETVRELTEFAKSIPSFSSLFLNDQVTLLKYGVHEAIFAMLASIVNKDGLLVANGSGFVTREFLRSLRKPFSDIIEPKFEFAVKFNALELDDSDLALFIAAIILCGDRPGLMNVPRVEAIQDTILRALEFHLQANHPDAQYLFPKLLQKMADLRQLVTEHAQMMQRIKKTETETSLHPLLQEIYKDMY
# Procedure, shortened: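 HEK293H GeneBLAzer PPARd UAS-bla reporter cells; cpd + L165041 300 nM final, 17 h 37 C; LiveBLAzer B/G FRET substrate 2 h RT; fluorescence intensity read-out. Antagonist mode.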
# [2] = target: Bile acid receptor (Homo sapiens) (UniProt Q96RI1); experiment: qHTS assay to identify small molecule antagonists of the farnesoid-X-receptor (FXR) signaling pathway (AID 743217; active = well fitted inhibition curve with a large enough effect in the signal ratio in the repeat runs, not every such curve was filed as active; inconclusive = weak or mixed curves, or effect the other way; inactive = no such curve, though single readings can be large or run the other way; the % refers to the signal ratio); conditions: HEK293T FXR-UAS-bla, beta-lactamase ratio, CDCA-stimulated, 16 h; activity change, negative = inhibition: at 62.6 µM (top of the series) unless noted
# Chain of UniProt Q96RI1 (Q96RI1 whole entry, looked up): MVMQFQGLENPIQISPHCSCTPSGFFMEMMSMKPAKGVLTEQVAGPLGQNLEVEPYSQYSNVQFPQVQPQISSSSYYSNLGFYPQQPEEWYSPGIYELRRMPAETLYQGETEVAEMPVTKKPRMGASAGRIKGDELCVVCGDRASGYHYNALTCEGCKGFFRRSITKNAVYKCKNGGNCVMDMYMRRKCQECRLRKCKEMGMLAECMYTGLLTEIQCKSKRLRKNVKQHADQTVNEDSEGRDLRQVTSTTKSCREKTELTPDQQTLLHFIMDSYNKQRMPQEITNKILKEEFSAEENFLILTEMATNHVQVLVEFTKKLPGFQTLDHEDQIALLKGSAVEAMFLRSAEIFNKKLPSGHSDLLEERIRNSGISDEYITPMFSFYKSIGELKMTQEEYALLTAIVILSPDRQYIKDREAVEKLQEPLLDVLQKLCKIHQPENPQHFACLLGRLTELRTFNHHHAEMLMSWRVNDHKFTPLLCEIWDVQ
# Procedure, shortened: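 Read-out: beta-lactamase FRET fluorescence (LiveBLAzer B/G substrate, 2 h, room temperature) in GeneBLAzer FXR-UAS-bla HEK 293T cells. Compounds were co-dosed with 50 uM chenodeoxycholic acid (final) and incubated 16 h at 37 °C.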
# [3] = A CellTox Green Cytotoxicity Assay to monitor cytotoxicity in HEK293 cells - 8 hour (AID 1224884); note: nearly all actives have a fitted effect of over 35% in size; note: potency is the fitted concentration of half-maximal effect
# Procedure, shortened: (§1)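 Read-out: fluorescence of a cell-impermeant cyanine dye staining DNA of dead cells, proportional to cytotoxicity. HEK293, 600 cells/well with reagent, compound (23 nL DMSO) added after 5 h; reads at 0, 8, 16, 24, 32, 40 h.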
# [4] = qHTS assay to identify small molecule antagonists of the estrogen receptor alpha (ER-alpha) signaling pathway - cell viability counter screen (AID 743074; calls by dose curve;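 note: HEK293 cells carrying ER-alpha-UAS-bla reporter stimulated with 17beta-estradiol; nearly all actives have a fitted effect of over 45% in size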; note: potency is the fitted concentration of half-maximal effect)
# [5] = target: Peroxisome proliferator-activated receptor gamma (Homo sapiens) (UniProt P37231); experiment: qHTS assay to identify small molecule agonists of the peroxisome proliferator-activated receptor gamma (PPARg) signaling pathway (AID 743094; active = well fitted activation curve with a large enough effect in the signal ratio in the repeat runs, not every such curve was filed as active; inconclusive = weak or mixed curves, or effect the other way; inactive = no such curve, though single readings can be large or run the other way; the % refers to the signal ratio); conditions: HEK293H PPARg-UAS-bla, beta-lactamase FRET ratio, 17 h; activation: at 57 µM (top of the series) unless noted
# Chain of UniProt P37231 (P37231 whole entry, looked up): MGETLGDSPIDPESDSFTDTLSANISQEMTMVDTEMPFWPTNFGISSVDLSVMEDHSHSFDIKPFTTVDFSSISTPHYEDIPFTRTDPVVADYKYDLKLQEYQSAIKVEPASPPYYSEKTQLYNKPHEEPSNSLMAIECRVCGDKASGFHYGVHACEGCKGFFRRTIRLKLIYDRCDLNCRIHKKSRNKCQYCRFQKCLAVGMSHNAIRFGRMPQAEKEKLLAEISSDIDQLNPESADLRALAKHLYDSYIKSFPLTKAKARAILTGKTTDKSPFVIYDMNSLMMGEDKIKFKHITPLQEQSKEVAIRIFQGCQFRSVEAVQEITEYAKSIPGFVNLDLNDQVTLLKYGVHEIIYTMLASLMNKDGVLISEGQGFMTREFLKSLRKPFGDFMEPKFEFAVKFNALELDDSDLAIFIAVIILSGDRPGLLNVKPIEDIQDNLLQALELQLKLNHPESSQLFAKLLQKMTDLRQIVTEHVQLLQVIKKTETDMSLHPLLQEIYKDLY
# Procedure, shortened: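 HEK293H PPARg-bla cells, 5 h settle at 37C/5% CO2; compound (DMSO) 17 h, 37C; B/G FRET substrate 1 h RT; fluorescence intensity read-out. qHTS format.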
# [6] = qHTS assay for identifying genotoxic compounds that show differential cytotoxicity against isogenic chicken DT40 cell lines with known DNA damage response pathways - Rad54/Ku70 mutant cell line (AID 743015); conditions: DT40 Rad54/Ku70 mutant viability, CellTiter-Glo, 40 h; activity change, negative = cytotoxicity: at 66.8 µM (top of the series) unless noted; note: nearly all actives have a fitted effect of over 60% in size; note: potency is the fitted concentration of half-maximal effect
# [7] = target: Estrogen receptor (Homo sapiens) (UniProt P03372); experiment: qHTS assay to identify small molecule agonists of the estrogen receptor alpha (ER-alpha) signaling pathway using the BG1 cell line (AID 743079); conditions: BG1Luc4E2 cells, ERE-luciferase agonist, 22 h; activation: at 70.3 µM (top of the series) unless noted; note: nearly all actives have a fitted effect of over 20% in size; note: potency is the fitted concentration of half-maximal effect
# Chain of UniProt P03372 (P03372 whole entry, looked up): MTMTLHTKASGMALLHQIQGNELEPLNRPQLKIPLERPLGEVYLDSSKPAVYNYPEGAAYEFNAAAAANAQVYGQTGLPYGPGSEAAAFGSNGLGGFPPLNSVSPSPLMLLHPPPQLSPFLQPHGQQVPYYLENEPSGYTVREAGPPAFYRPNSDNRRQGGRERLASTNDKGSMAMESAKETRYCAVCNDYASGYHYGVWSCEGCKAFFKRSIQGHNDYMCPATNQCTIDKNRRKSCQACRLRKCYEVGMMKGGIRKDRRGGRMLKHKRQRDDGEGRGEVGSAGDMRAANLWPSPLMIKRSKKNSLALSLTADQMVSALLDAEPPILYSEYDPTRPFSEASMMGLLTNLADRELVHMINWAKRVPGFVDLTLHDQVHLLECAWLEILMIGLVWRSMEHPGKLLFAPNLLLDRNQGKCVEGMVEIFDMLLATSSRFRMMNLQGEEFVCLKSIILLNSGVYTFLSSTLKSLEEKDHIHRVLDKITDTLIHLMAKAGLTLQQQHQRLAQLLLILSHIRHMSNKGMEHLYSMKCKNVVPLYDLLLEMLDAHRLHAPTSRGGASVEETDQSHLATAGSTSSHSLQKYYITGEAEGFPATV
# [8] = target: Vitamin D3 receptor (Homo sapiens) (UniProt P11473); experiment: qHTS assay to identify small molecule agonists of the vitamin D receptor (VDR) signaling pathway (AID 743222; calls by dose curve); conditions: HEK293T VDR-UAS-bla, beta-lactamase FRET ratio, 16 h; activation: at 63.5 µM (top of the series) unless noted
# Chain of UniProt P11473 (P11473 whole entry, looked up): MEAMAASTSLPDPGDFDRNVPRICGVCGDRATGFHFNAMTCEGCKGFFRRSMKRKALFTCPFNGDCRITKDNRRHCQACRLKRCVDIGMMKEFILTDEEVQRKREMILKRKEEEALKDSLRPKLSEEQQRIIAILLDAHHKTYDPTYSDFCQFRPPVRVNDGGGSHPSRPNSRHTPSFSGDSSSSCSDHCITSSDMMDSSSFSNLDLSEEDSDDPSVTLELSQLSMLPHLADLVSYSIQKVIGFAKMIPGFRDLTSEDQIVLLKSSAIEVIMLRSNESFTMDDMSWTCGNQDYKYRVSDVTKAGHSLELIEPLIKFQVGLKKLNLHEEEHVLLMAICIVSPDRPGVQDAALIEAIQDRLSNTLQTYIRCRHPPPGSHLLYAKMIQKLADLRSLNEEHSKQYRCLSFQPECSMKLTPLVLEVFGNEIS
# Procedure, shortened: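 Beta-lactamase reporter readout (LiveBLAzer B/G FRET, 2 h RT) in VDR-bla cells after 16 h compound treatment at 37C, 5% CO2; cells pre-incubated 4 h before pin transfer of DMSO solutions.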
# [9] = Caspase-3/7 induction in CHO-K1 cells by small molecules, qHTS cell viability counter screen (AID 1346979); note: nearly all actives have a fitted effect of over 35% in size; note: potency is the fitted concentration of half-maximal effect
# Procedure, shortened: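 Cells (CHO-K1, wild type) are plated at 1,500 per well and incubated 5hr. Test compounds in DMSO are then pinned in, followed by 16hr at 37C and 5% CO2. Viability is read by CellTiter-Fluor fluorescence after 1hr.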
# [10] = target: Nuclear receptor subfamily 1 group I member 2 (Homo sapiens) (UniProt O75469); experiment: Human pregnane X receptor (PXR) small molecule agonists, qHTS assay (AID 1346982); note: nearly all actives have a fitted effect of over 35% in size; note: potency is the fitted concentration of half-maximal effect
# Chain of UniProt O75469 (O75469 whole entry, looked up): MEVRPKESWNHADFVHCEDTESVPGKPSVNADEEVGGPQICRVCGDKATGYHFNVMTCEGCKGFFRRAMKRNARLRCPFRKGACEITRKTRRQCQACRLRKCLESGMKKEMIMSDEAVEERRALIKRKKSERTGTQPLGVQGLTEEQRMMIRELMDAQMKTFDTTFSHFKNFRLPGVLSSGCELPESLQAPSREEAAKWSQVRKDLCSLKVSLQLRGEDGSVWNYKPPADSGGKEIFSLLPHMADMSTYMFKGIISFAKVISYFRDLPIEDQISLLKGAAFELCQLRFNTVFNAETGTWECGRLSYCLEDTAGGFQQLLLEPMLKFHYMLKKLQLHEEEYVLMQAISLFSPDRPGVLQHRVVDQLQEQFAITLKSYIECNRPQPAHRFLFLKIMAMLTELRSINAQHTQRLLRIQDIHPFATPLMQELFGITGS
# Procedure, shortened: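 HepG2 PXR-Luc reporter line, 5% charcoal-stripped FBS; 5 hr pre-incubation, compound (DMSO) 24 hr at 37 C/5% CO2; ONE-Glo 30 min RT; luminescence read-out.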
# [11] = target: Estrogen receptor beta (Homo sapiens) (UniProt Q92731); experiment: qHTS assay to identify small molecule agonists of the estrogen receptor beta (ER-beta) signaling pathway (AID 1259377; active = well fitted activation curve with a large enough effect in the signal ratio in the repeat runs, not every such curve was filed as active; inconclusive = weak or mixed curves, or effect the other way; the % refers to the signal ratio); conditions: ER-beta-UAS-bla HEK293T, beta-lactamase FRET ratio, 16 h; activation: at 92.4 µM (top of the series) unless noted
# Chain of UniProt Q92731 (Q92731 whole entry, looked up): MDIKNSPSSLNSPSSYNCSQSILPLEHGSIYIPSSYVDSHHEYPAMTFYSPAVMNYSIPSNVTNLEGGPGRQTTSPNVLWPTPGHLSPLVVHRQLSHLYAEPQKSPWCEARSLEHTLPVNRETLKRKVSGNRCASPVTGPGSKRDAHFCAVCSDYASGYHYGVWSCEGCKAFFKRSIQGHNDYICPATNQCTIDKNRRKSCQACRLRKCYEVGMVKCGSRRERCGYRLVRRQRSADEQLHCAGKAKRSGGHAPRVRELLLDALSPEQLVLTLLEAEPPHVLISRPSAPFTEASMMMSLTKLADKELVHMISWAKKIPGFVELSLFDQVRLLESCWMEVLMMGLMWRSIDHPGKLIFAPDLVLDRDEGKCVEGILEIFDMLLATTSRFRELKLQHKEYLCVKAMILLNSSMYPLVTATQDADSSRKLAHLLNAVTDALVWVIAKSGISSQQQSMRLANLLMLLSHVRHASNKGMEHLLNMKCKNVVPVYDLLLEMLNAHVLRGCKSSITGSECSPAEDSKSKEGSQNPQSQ
# Procedure, shortened: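 HEK293T ER-beta-UAS-bla; 2% charcoal-stripped FBS; cells pre-incubated 6 hr, compound 16 hr, 37C/5% CO2; LiveBLAzer B/G FRET substrate 2 h RT; fluorescence intensity read.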
# [12] = qHTS assay to identify small molecule agonists of the estrogen receptor beta (ER-beta) signaling pathway - cell viability counter screen (AID 1259380); note: potency is the fitted concentration of half-maximal effect; nearly all actives have a fitted effect of over 30% in size
# Procedure, shortened: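 Luminescence read-out (CellTiter-Glo, 30 min, room temp) taken in the same wells as the beta-lactamase reporter assay; ER-beta-UAS-bla HEK293T cells exposed to DMSO-dissolved compounds for 16 hr at 37C in 2% charcoal-stripped FBS medium.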
# [13] = A CellTox Green Cytotoxicity Assay to monitor cytotoxicity in HEK293 cells - 16 hour (AID 1224888); note: nearly all actives have a fitted effect of over 35% in size; note: potency is the fitted concentration of half-maximal effect
# Procedure, shortened: as §1
# [14] = A CellTox Green Cytotoxicity Assay to monitor cytotoxicity in HepG2 cells - 24 hour (AID 1224878); note: nearly all actives have a fitted effect of over 45% in size; note: potency is the fitted concentration of half-maximal effect
# Procedure, shortened: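 HepG2, 600 cells/well premixed w/ CellTox Green; 5 h settle, 37 C/5% CO2; pintool cpd add (DMSO); 37 C, 40 h; fluorescence read at 0, 8, 16, 24, 32, 40 h.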
# [15] = target: Progesterone receptor (Homo sapiens) (UniProt P06401); experiment: qHTS assay to identify small molecule agonists of the progesterone receptor (PR) signaling pathway (AID 1346784; calls by dose curve; note: nearly all actives have a fitted effect of over 30% in size); conditions: PR-UAS-bla HEK293T, beta-lactamase FRET ratio, 16 h; activation: at 92.4 µM (top of the series) unless noted
# Chain of UniProt P06401 (P06401 whole entry, looked up): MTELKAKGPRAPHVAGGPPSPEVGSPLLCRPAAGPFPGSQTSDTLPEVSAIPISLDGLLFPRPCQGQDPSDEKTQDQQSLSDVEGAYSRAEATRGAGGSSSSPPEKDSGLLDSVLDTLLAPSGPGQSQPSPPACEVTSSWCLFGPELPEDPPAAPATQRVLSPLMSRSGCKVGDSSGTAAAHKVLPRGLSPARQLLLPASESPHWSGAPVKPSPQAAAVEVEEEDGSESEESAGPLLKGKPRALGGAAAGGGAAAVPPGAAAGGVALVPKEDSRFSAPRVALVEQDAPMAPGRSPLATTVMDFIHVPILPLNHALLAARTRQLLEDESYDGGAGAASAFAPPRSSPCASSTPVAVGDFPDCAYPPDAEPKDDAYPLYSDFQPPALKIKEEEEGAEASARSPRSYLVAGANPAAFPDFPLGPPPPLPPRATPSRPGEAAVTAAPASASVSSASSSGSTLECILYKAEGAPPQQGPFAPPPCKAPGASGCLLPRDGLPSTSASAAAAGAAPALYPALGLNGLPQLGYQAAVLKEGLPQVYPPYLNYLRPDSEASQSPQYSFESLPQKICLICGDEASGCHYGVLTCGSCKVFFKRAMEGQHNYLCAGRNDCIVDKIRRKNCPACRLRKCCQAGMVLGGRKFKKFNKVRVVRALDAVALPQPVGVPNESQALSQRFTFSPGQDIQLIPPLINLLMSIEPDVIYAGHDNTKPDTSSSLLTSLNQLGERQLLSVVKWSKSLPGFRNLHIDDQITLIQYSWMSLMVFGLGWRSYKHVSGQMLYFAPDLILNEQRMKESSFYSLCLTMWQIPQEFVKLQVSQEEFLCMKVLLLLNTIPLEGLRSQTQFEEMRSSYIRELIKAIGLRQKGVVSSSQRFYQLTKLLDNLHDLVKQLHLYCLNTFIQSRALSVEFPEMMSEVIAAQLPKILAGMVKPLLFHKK
# Procedure, shortened: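 Beta-lactamase reporter read-out: after 16 hr compound treatment at 37C and a further 2 hr at room temperature with LiveBLAzer B/G FRET substrate, fluorescence was measured in PR-UAS-bla HEK 293T cells grown in 2% charcoal-stripped serum.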
# [16] = qHTS RealTime-Glo MT Cell Viability Assay in HEK293 cells - 24 hour (AID 1224886); note: top concentration of the series differs between compounds; nearly all actives have a fitted effect of over 50% in size
# Procedure, shortened: (§2)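 Cells + reagent dispensed (600 cells/well, HEK293) → 5 h at 37 C/5% CO2 → 23 nL compound in DMSO pinned → 40 h at 37 C → luminescence read at 0, 8, 16, 24, 32, 40 h.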
# [17] = qHTS assay to identify small molecule agonists of H2AX (AID 1224845; active = well fitted activation curve with a large enough effect in the signal ratio in the repeat runs, not every such curve was filed as active; inconclusive = weak or mixed curves; the % refers to the signal ratio); conditions: CHO-K1 phospho-H2AX Ser139 HTRF, 3 h; activation (H2AX phosphorylation): at 154 µM (top of the series) unless noted
# Procedure, shortened: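 Wild-type CHO-K1 cells, plated overnight, exposed 3hr at 37C to 15 concentrations (0.76% DMSO final). Lysed, then HTRF anti-pH2AX (S139) cryptate and anti-H2AX-d2 antibodies, 24 hr room temperature; 665/620 nm emission read.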
# [18] = qHTS RealTime-Glo MT Cell Viability Assay in HEK293 cells - 32 hour (AID 1224868); note: top concentration of the series differs between compounds; nearly all actives have a fitted effect of over 50% in size
# Procedure, shortened: as §2
# Tags give direction and shape of the fitted curve or compound fluorescence and quenching.
smiles,measurement,setting,value
CN1CC(=O)NC1=N,Potency,[1],inactive
same,Potency,[2],inactive
same,Potency,[3],inactive
C=C(C)C(=O)OCCNC(C)(C)C,Potency,[4],inactive
same,Potency,[5],inactive
COc1cc(C(=S)N2CCOCC2)ccc1O,Potency,[6],inactive
same,Potency,[7],inactive
same,Potency,[5],inactive
CCCCCCCCCCCCSCCOCCO,activation,[8],inconclusive: 0.0913%
same,Potency,[9],inactive
same,Potency,[10],"inconclusive: 33.5 µM [activator, single point]"
CCCN(CCC)C(=O)SCC,Potency,[6],"inconclusive: 71.7 µM [cytotoxic, single point]"
same,activation,[11],inconclusive: 4.6%
same,Potency,[12],"inconclusive: 24.3 µM [rising, single point]"
NC(=O)c1cc[n+](CC2=C(C(=O)[O-])N3C(=O)[C@@H](NC(=O)Cc4cccs4)[C@H]3SC2)cc1,Potency,[1],inactive
same,Potency,[2],inactive
same,Potency,[3],inactive
CCn1ccc(NS(=O)(=O)c2ccc(N)cc2)nc1=O,Potency,[13],"inconclusive: 0.477 µM [activator, single point]"
C=CC(C)=CCC=C(C)C,Potency,[6],"inconclusive: 68.6 µM [cytotoxic, single point]"
same,Potency,[4],inactive
same,Potency,[14],inactive
same,Potency,[9],inactive
same,Potency,[10],"inconclusive: 54.5 µM [activator, partial curve, poor fit]"
CC(=O)Nc1ccn(C2COC(COC(=O)c3ccccc3)O2)c(=O)n1 (stereo unspecified),Potency,[4],"inconclusive: 26.8 µM [rising, single point]"
same,activation,[5],inconclusive: -11.8%
same,Potency,[8],inactive
same,Potency,[3],inactive
CC(C)Nc1nc(N)nc(Cl)n1,Potency,[14],inactive
same,Potency,[10],inactive
C=CC(=O)NC(C)(C)C,Potency,[3],inactive
same,Potency,[15],inactive
same,Potency,[10],inactive
CC(C)(C)c1cc(C=O)cc(C(C)(C)C)c1O,Potency,[16],inactive
CCCC(C)CC (stereo unspecified),Potency,[6],inactive
COCCOC(=O)c1ccccc1C(=O)OCCOC,Potency,[4],"inconclusive: 62 µM [rising, single point]"
same,"ratio activity, negative = inhibition",[1],inconclusive: 0.646%
same,Potency,[14],"inconclusive: 49 µM [activator, partial curve, poor fit]"
C[Si](C)(C)O[Si](C)(C)O[Si](C)(C)C,Potency,[12],"inconclusive: 34.4 µM [rising, single point]"
CCCCCCCCCCCCCCC(=O)NC(CO)CCCCCCCCCCCCCC (stereo unspecified),"ratio activity, negative = inhibition",[1],inconclusive: -10% [at 80.4 µM]
C=C(C)C(=O)NCCCN(C)C,Potency,[5],inactive
same,"ratio activity, negative = inhibition",[1],inconclusive: -1.79%
same,Potency,[3],"inconclusive: 54.9 µM [activator, single point]"
same,Potency,[13],"inconclusive: 0.0616 µM [activator, partial curve]"
CC(C)[C@H]1CC[C@@H](C)CC1=O,Potency,[5],inactive
same,Potency,[3],inactive
CCN(C)C(=O)Oc1cccc([C@H](C)N(C)C)c1,Potency,[2],inactive
same,Potency,[15],inactive
CCc1ccc(C)nc1,Potency,[13],inactive
C1CCN2C[C@@H]3C[C@@H](CN4CCCC[C@@H]34)[C@H]2C1,Potency,[4],inactive
same,Potency,[8],inactive
same,Potency,[11],inactive
same,Potency,[12],"inconclusive: 13.3 µM [cytotoxic, full curve]"
CCCCCO,Potency,[14],inactive
same,activation,[11],inconclusive: 8.29%
same,Potency,[9],"inconclusive: 61 µM [rising, partial curve]"
O=C1OC(=O)c2cc(Oc3ccc4c(c3)C(=O)OC4=O)ccc21,activation,[11],inconclusive: 9.3%
same,Potency,[9],"inconclusive: 30.6 µM [rising, full curve, poor fit]"
CCn1cc(C(=O)O)c(=O)c2cc(F)c(N3CCNCC3)nc21,Potency,[15],inactive
same,Potency,[10],inactive
CCNC(=O)C(C)OC(=O)Nc1ccccc1 (stereo unspecified),Potency,[6],"inconclusive: 77 µM [cytotoxic, single point]"
same,Potency,[2],inactive
same,Potency,[8],inactive
same,Potency,[9],"inconclusive: 77 µM [rising, partial curve, poor fit]"
CNc1ccccc1,Potency,[5],inactive
CC(C)=CCCC(C)O (stereo unspecified),Potency,[3],"inconclusive: 54.9 µM [activator, single point]"
CCCCCCCCCCCl,Potency,[14],inactive
CC(=O)Nc1c(I)c(NC(C)=O)c(I)c(C(=O)O)c1I,Potency,[13],inactive
CCCC[O][Al]([O]CCCC)[O]CCCC,Potency,[6],inactive
same,Potency,[16],inactive
CCC(C(=O)NC(=O)NC(C)=O)c1ccccc1 (stereo unspecified),Potency,[6],inactive
same,Potency,[14],inactive
[O-][n+]1ccc(Cl)cc1,Potency,[12],"inconclusive: 28.6 µM [cytotoxic, single point]"
same,Potency,[9],inactive
CCCCOCCOC(=O)COc1ccc(Cl)cc1Cl,Potency,[7],"inconclusive: 61.1 µM [activator, single point]"
same,Potency,[9],"inconclusive: 34.4 µM [rising, partial curve]"
COC(=O)[C@@H]1CC2=CC(=O)CC[C@]2(C)[C@@]23O[C@@H]2C[C@@]2(C)[C@@H](CC[C@@]24CCC(=O)O4)[C@H]13,Potency,[17],inactive
same,Potency,[18],inactive
NS(=O)(=O)c1cc2c(cc1C(F)(F)F)NC(Cc1ccccc1)NS2(=O)=O (stereo unspecified),Potency,[4],inactive
same,Potency,[1],"inconclusive: 33.5 µM [activator, single point]"
Nc1ccc(S(=O)(=O)O)cc1,Potency,[7],active: 38.8 µM
same,Potency,[15],inactive
